Laboratory results: PubChem BioAssay AID360 (National Center for Advancing Translational Sciences (NCATS), 2006)
The whole screen tested about 48,000 compounds, of which about 550 (1.1%) were called active. Not shown: some 4% with an inconclusive outcome. Cut-off read from the data, not from the text of the source: active = potency below about 15 µM; inconclusive = mostly about 16 µM to 33 µM; inactive = weaker than that. Some of the results follow.

target: Lysosomal acid glucosylceramidase (Homo sapiens) (UniProt P04062); test: Glucocerebrosidase; conditions: purified enzyme, resorufin glucoside fluorescence (screen aimed at inhibitors), 20 min;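 note: the screen sought inhibitors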
Chain of UniProt P04062 (P04062 whole entry, looked up): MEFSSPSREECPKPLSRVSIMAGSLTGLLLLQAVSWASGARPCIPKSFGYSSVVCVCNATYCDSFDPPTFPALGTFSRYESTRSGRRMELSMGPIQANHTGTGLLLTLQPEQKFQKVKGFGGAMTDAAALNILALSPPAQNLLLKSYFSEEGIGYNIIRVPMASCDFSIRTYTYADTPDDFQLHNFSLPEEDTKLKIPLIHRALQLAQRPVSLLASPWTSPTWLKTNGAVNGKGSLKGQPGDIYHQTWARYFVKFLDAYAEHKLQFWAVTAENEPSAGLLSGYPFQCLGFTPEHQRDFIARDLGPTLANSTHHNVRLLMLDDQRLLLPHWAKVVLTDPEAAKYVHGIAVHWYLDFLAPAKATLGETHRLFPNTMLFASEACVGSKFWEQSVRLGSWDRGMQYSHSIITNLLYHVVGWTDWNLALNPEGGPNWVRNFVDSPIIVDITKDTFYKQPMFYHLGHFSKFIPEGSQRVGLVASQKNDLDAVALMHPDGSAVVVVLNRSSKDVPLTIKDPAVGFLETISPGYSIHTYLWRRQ
In short: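 Wild-type enzyme at 0.2 nM final in 50mM citric acid/KH2PO4, 10mM sodium taurocholate, 0.01% tween-20, pH 5.9, with resorufin beta-D-glucopyranoside at 30 uM final. Compounds titrated, 20 min at RT, red fluorescence read; AC50 from titration.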
Potency is the fitted concentration of half-maximal effect.

Potency, inactive:
COc1cccc(C(=O)NCCC2=CCCCC2)c1OC > 76.9 µM
CCN1CCN(C(=O)c2ccccc2N(C)S(=O)(=O)c2ccc(C)cc2)CC1 > 76.9 µM
CCOC(=O)c1c(C)nc(-c2ccccc2)nc1N > 76.9 µM
COc1cc(CC(=O)NCc2ccc3c(c2)OCO3)cc(OC)c1OC > 76.9 µM
COc1ccc(OC)c(-n2nnnc2SCC(=O)Nc2ccc(C(=O)N3CCCCC3)cc2)c1 > 76.9 µM
Cc1ccc(NC(=O)CS(=O)CC(=O)NCCCN(C)c2ccccc2)cc1 (stereo not drawn) > 76.9 µM
CCN1C(=O)c2cccc3c(NC(=O)c4ccc5c(c4)OCCO5)ccc1c23 > 76.9 µM
CCOC(=O)c1cccc(NC(=O)CNS(=O)(=O)c2cccs2)c1 > 76.9 µM
Cc1cc(C)n(-c2ccc(C(=O)OCC(=O)c3c(N)n(C)c(=O)n(C)c3=O)cc2)n1 > 76.9 µM
CC1CCN(S(=O)(=O)c2ccc(F)c(C(=O)O)c2)CC1 > 76.9 µM
O=C(Nc1cccc(F)c1)c1ccc(S(=O)(=O)NCC2CCCO2)cc1 (stereo not drawn) > 76.9 µM
COc1cccc(C(c2nnnn2Cc2ccccc2)N2CCN(C(=O)c3ccco3)CC2)c1OC (stereo not drawn) > 76.9 µM
COc1ccc(-c2nc(C#N)c(N3CCCCCC3)o2)cc1 > 76.9 µM
Cc1c(Cl)ccc2c1NC(=O)[C@]21[C@@H]2C(=O)N(Cc3ccccc3)C(=O)[C@@H]2[C@@H]2CCCN21
CC(=O)Nc1ccc(S(=O)(=O)N2CCN(C(=O)Cc3ccccc3)CC2)cc1 > 76.9 µM
CC(C)NC(=O)c1cc(-c2ccc(Br)cc2)on1 > 76.9 µM
COC(=O)c1oc2ccc(OC)cc2c1N > 76.9 µM
CCOCCCNC(=O)CN1C(=O)CSc2cc(S(=O)(=O)N3CCCCCC3)ccc21 > 76.9 µM
C=CCOc1cccc(C2C(C(=O)c3ccco3)=C(O)C(=O)N2CCN(CC)CC)c1 (stereo not drawn) > 76.9 µM
CN(Cc1ccccc1)Cc1nc2c([nH]1)c(=O)[nH]c(=O)n2C > 76.9 µM
CCN1C(=O)c2cccc3c(NC(=O)C(C)(C)C)ccc1c23 > 76.9 µM
Cc1c(NC(=O)COC(=O)Cc2ccc(Cl)cc2)c(=O)n(-c2ccccc2)n1C > 76.9 µM
O=S(=O)(NCc1ccccc1)c1ccc2c(c1)OCCO2
Cc1noc(C)c1CSc1nnc2cc(C)c3ccccc3n12 > 76.9 µM
NC(=O)CSc1nnc(-c2cccnc2)n1CCc1ccccc1 > 76.9 µM
COc1ccc(S(=O)(=O)N2CCC(n3cnc4cc(C(F)(F)F)ccc43)CC2)cc1 > 76.9 µM
OC1(c2ccccc2F)CCN(Cc2nnc(-c3ccccc3)o2)CC1 > 76.9 µM
CC(=O)C1C(c2cccc(Oc3ccccc3)c2)NC(=O)NC1(O)C(F)(F)F (stereo not drawn) > 76.9 µM
O=C(Cn1cnc2ccccc2c1=O)OCCCCN1C(=O)c2ccccc2C1=O > 76.9 µM
CC1CCc2[nH]nc(C(=O)O)c2C1 (stereo not drawn) > 76.9 µM
CSc1nnc2n(CCc3ccccc3)c(=O)c3c4c(sc3n12)CCCC4 > 76.9 µM
Nc1c(C(=O)NCCN2CCOCC2)c2nc3ccccc3nc2n1-c1ccc2c(c1)OCO2
COCc1cc(C)nc(SCC(=O)c2ccc(O)c(O)c2)c1C#N > 76.9 µM
CCOc1ccccc1NC(=O)C1CCN(S(=O)(=O)c2c(C)noc2C)CC1 > 76.9 µM
CS(=O)(=O)N1CCCC(C(=O)N2CCc3ccccc3C2)C1 (stereo not drawn) > 76.9 µM
CC(C)NS(=O)(=O)c1ccc(OCC(N)=O)c(Cl)c1 > 76.9 µM
CCOc1c(S(=O)(=O)N2CCCC2)ccc(Cl)c1Cl > 76.9 µM
C=CCSC1=C(C#N)C(c2cccc(OC)c2)CC(=O)N1 (stereo not drawn) > 76.9 µM
COC(=O)c1ccc2c(=O)n(CC3CCCO3)c(SCC(=O)Nc3ccccc3OC)nc2c1 (stereo not drawn) > 76.9 µM
CS(=O)(=O)Nc1ccc(S(=O)(=O)Nc2nccs2)cc1 > 76.9 µM
O=C1c2ccccc2C(=O)N1CCc1ccccn1 > 76.9 µM
COc1ccc(C(C)(C)C)cc1NC(=O)Nc1ccc2c(c1)OCO2 > 76.9 µM
COC(=O)c1ccc(CN2C(=O)NC3(CCCc4ccccc43)C2=O)o1 (stereo not drawn) > 76.9 µM
Nc1nc(SCC(=O)N2CCCc3ccccc32)[nH]c(=O)c1-c1ccccc1 > 76.9 µM
CCOC(=O)c1[nH]c(C)c(/C(O)=C2\C(=O)C(=O)N(CCN(C)C)C2c2ccco2)c1C (stereo not drawn) > 76.9 µM
CCn1c(Cc2ccccc2)nnc1SCc1nc2ccccc2c(=O)[nH]1 > 76.9 µM
CCCCN1C(=O)NC(NC(C)=O)(C(F)(F)F)C1=O (stereo not drawn) > 76.9 µM
COc1ccc(C2C3=C(CCCC3=O)Nc3nc4ccccc4n32)cc1OC (stereo not drawn) > 76.9 µM
Cc1ccc(NC(=O)Cn2cnc3c(cnn3C(C)(C)C)c2=O)cc1 > 76.9 µM
C=C(C)c1cccc(C(C)(C)NC(=O)N2CCN(CC(N)=O)CC2)c1 > 76.9 µM
CC(C)c1cc(NC(=O)C(C)(C)C)cc(C(C)C)c1O > 76.9 µM
CCOCC(=O)Nc1nnc(SCCOC)s1 > 76.9 µM
CCCCOc1ccc(C(C)NC(=O)C2CCCN(S(=O)(=O)CC)C2)cc1 (stereo not drawn) > 76.9 µM
N#C/C(=C(/O)COC(=O)CCCNC(=O)c1ccc(Cl)cc1)c1nc2ccccc2[nH]1 > 76.9 µM
COC(=O)c1cc(=O)nc2sc(-c3ccccc3)nn12 > 76.9 µM
O=C(O)c1ccc(-n2nc(C(F)(F)F)c3c2-c2ccoc2CC3)cc1 > 76.9 µM
Cc1ccccc1N1OC2C(=O)N(c3ccc(F)cc3)C(=O)C2C1c1ccccn1 (stereo not drawn) > 76.9 µM
O=C(OCc1nnc(-c2ccccc2)o1)C1=COCCO1 > 76.9 µM
C/C(N)=C(/C#N)C(=O)COC(=O)c1cc(S(=O)(=O)N2CCCCC2)ccc1C > 76.9 µM
CCOc1ccc(C2C(C(=O)OC)=C(C)N=C3SCCC(=O)N32)cc1OCC (stereo not drawn) > 76.9 µM
COc1cc(-c2nnc(Cn3cc(C(F)(F)F)ccc3=O)o2)cc(OC)c1OC > 76.9 µM
COc1ccc2cc(C#N)c(SCC(=O)N3CCCC3)nc2c1 > 76.9 µM
Cc1nnsc1C(=O)Nc1ccccc1Cl > 76.9 µM
O=C(c1cc(-c2ccncc2)nc2ccc(Cl)cc12)N1CCN(C(=O)C2CCCO2)CC1 (stereo not drawn) > 76.9 µM
Cc1cc(C)nc(-n2nc(C)c3c(=O)[nH]c(C(F)(F)F)nc32)n1 > 76.9 µM
CC(=O)c1cccc(NC(=O)Nc2ccc(C(=O)N3CCCC3)cc2)c1 > 76.9 µM
COc1ccccc1C1CC(=O)NC(C)=C1C(=O)OCC1CCCO1 (stereo not drawn) > 76.9 µM
O=C(CSc1nnc(CNc2ccc(F)cc2)n1Cc1ccccc1)NCc1ccco1 > 76.9 µM
COc1ccc(Cn2nnnc2CN(Cc2cc3ccc(C)cc3[nH]c2=O)C2CCCC2)cc1 > 76.9 µM
COc1ccc(-c2nn3c(-c4ccco4)nnc3s2)cc1OC > 76.9 µM
CCOC(=O)N1CCN(c2cc3[nH]c(=S)[nH]c3cc2F)CC1 > 76.9 µM
COc1ccc(S(=O)(=O)N(CC(=O)NC2CC2)C2CCCCC2)cc1Cl > 76.9 µM
COc1ccc(C(=O)Nc2nc3nc(-c4ccccc4)cc(=O)n3[nH]2)cc1 > 76.9 µM
COc1cccc(C(=O)N2CCN(Cc3ccccc3C(F)(F)F)CC2)c1 > 76.9 µM
Cc1ccc(S(=O)(=O)N2Cc3ccccc3CC2C(=O)Nn2cnnc2)cc1 (stereo not drawn) > 76.9 µM
CC1CCCCN1S(=O)(=O)c1ccc2c(c1)CCN2C(=O)CCC(=O)O (stereo not drawn) > 76.9 µM
COc1cccc(C(=O)Oc2cc(N)n(S(=O)(=O)c3ccc(C)cc3)n2)c1OC > 76.9 µM
Cc1nn(C)c(C)c1NC(=O)CSc1nnc(C)n1-c1ccccc1 > 76.9 µM
Cn1c(=O)c2c(nc(NCc3ccco3)n2C/C=C/c2ccccc2)n(C)c1=O > 76.9 µM
COC(=O)COc1ccc(S(=O)(=O)NCC2CCCO2)cc1Cl (stereo not drawn) > 76.9 µM
O=C(Cn1cc(C(=O)C2CC2)c2ccccc21)NCC1CCCO1 (stereo not drawn) > 76.9 µM
CC(NC(=O)c1ccnc(C(C)(C)C)c1)c1ccccc1 (stereo not drawn) > 76.9 µM
CC(=O)c1ccc(-c2nc3ccccc3n2C)o1 > 76.9 µM
CCc1ccc(Nc2ncc3c(n2)CC(c2ccco2)CC3=O)cc1 (stereo not drawn) > 76.9 µM
Cc1cc(NC(=O)COc2cccc3cccnc23)no1 > 76.9 µM
CC(=O)n1c2ccccc2c2nc(NC(C)C)sc21 > 76.9 µM
CCOc1ccccc1NC(=O)C1C2C=CC(O2)C1C(=O)O (stereo not drawn) > 76.9 µM
Cc1ncc(CSc2nnnn2-c2ccccc2)c(N)n1 > 76.9 µM
